Assay [1] deals with Flag–DNMT1 (aa 296–1620) (mouse) (UniProt P13864). As to the kind of experiment: co-IP; 293T cells co-transfected with HA–HESX1 and Flag–DNMT1 constructs; lysis buffer with 1% Triton X-100; anti-Flag or anti-HA antibodies on protein G sepharose, 2 h, 4 °C; blots with HRP-conjugated anti-HA or anti-Flag.
For assay [2], the target named is full-length Flag–DNMT1 (aa 1–1620) (mouse) (UniProt P13864). The description is as above.
In assay [3] the target is Flag–DNMT1 (aa 158–1620) (mouse) (UniProt P13864). The description is as above.
Assay [4] addresses Flag–DNMT1 (aa 1–296) (mouse) (UniProt P13864). Described as above.
In assay [5] the target is Flag–DNMT1 (aa 1–158) (mouse) (UniProt P13864). The assay is described as above.
Assay [6] concerns the target full-length Flag–DNMT1 (aa 1–1620) (mouse) (UniProt P13864). As to the kind of experiment: co-IP; transfected CHO cells, HA–HESX1 and Flag–DNMT1; unpublished data; protein levels much lower than in 293T.

Amino acid sequences for entries named in this document (tags omitted). A change or cut given only in a name is not applied to a line headed by its entry. Residues count along the entry.
UniProt P13864: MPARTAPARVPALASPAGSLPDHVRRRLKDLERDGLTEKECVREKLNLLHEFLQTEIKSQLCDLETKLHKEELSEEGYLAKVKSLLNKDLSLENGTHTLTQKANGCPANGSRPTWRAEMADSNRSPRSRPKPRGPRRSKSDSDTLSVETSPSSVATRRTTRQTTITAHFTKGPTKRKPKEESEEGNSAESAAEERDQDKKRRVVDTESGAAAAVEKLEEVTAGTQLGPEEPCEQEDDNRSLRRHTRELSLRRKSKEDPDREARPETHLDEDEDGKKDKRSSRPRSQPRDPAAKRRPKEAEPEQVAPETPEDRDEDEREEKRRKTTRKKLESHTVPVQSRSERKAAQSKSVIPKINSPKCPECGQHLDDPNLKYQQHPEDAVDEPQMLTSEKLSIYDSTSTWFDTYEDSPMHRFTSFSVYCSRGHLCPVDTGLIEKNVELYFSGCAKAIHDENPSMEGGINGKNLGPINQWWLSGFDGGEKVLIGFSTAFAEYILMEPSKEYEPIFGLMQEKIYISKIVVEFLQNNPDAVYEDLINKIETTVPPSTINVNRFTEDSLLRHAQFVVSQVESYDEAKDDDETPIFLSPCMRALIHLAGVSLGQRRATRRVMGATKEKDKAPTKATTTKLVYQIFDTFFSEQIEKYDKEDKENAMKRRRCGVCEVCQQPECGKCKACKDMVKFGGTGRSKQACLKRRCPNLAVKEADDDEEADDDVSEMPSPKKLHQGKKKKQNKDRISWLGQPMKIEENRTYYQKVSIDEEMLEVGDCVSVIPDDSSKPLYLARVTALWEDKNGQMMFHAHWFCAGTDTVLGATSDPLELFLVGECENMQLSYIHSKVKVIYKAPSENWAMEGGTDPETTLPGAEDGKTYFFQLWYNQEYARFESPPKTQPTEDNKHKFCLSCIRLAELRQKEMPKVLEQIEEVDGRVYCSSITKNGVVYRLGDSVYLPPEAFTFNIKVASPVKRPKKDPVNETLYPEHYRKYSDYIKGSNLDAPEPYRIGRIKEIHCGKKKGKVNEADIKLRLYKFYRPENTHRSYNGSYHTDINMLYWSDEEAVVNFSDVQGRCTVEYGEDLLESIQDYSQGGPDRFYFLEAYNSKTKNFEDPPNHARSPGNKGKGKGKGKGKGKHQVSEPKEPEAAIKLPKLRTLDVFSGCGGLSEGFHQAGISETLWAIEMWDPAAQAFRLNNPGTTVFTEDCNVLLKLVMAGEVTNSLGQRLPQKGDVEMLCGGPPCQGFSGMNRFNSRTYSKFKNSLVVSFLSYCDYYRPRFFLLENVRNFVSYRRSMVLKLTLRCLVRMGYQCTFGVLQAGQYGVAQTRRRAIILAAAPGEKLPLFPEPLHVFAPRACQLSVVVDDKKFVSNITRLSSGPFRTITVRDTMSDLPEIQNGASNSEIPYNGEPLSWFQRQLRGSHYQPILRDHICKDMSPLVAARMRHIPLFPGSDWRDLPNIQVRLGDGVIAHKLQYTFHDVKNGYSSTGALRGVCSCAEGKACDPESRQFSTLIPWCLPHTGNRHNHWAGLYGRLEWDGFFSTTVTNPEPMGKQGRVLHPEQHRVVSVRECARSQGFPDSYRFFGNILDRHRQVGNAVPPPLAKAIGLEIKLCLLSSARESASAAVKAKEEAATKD
Flag–DNMT1 (aa 1–296): residues 1-296 of P13864
Flag–DNMT1 (aa 1–158): residues 1-158 of P13864
Flag–DNMT1 (aa 158–1620): residues 158-1620 of P13864
Flag–DNMT1 (aa 296–1620): residues 296-1620 of P13864
UniProt Q61658: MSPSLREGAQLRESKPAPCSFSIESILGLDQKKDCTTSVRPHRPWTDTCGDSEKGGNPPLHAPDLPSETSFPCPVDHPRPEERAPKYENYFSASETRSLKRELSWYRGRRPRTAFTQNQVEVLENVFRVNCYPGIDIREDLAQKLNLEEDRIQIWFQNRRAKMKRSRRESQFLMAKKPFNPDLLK

No constants are given. Whether binding was seen depends on the method and setting. Binding seen in cells or lysates may run through a third protein. Some results given as binding are weak or reduced against the parent protein; the word gives no strength.

As for “full-length HA–HESX1 (from UniProt Q61658 1-185)”, the binding result in assay [1] was “binds”; in assay [2], “binds”; in assay [3], “binds”; in assay [4], “binds weakly”; in assay [5] it was “no binding”; in assay [6], “binds”.

For the origin of these results see publication PMC2233781.
